The text below walks through data of PubChem BioAssay AID1508623 (National Center for Advancing Translational Sciences (NCATS), 2021).

Hit rate of the full screen: of about 48,000 compounds, about 450 (0.94%) were called active. Another 19% or so got no clear call; they are omitted. Calls come from the whole dose curve; as a rule, active = well fitted inhibition curve with a large enough effect; inconclusive = small, poorly fitted or top-dose-only effect; inactive = no such curve, though single readings can be large or run the other way. This is one part of the list.

This test can be described thus: Primary qHTS for Identification of Small Molecule Inhibitors of Huntingtin Promoter Activity. Note: nearly all actives have a fitted effect of over 50% in size. The settings on record: HEK293 HTT promoter firefly luciferase reporter (activity 0% = vehicle and -100% = no light), 24 h; series mostly up to 57.5 µM; activity change, negative = inhibition: at the top concentration. In short, it runs like this:
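Quantitative HTS used concentration series of up to 57.5 uM final on HEK293 luciferase reporter cells, 24 h at 37 degrees C. Readout was Dual-Glo firefly luminescence.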
For the compound `Cc1cc(NC(=O)Nc2nnc(N(C)C3CCCCC3)s2)ccc1Br`, the “activity change, negative = inhibition” value was inactive: -9.19%. The same measure for `CN1C(=O)c2ccccc2C1=O`: inactive: 8.33% [at 116 µM]; for `Cc1cccc(NC(=O)Cn2ncc3c4ccccc4n(Cc4ccccc4)c3c2=O)c1C`: inactive: -2.99%.

Consider `Cc1ccc(S(=O)(=O)CCC(=O)Nc2ccc(OC(F)(F)F)cc2)cc1`, for which the “activity change, negative = inhibition” value is inactive: -12.1%. The result for `CCOC(=O)O[C@]1(C(=O)OCCl)CC[C@H]2[C@@H]3CCC4=CC(=O)C=C[C@]4(C)[C@H]3[C@@H](O)C[C@@]21C` reads inactive: 9.78%.

`CCc1ccccc1NC(=O)Cn1c(=O)n(CCCCCC(=O)NCc2ccc(C)cc2)c(=O)c2sccc21`: the “activity change, negative = inhibition” value was inactive: -23.2%. Consider `CCC(Sc1nc2ccncc2[nH]1)C(=O)Nc1cc(Cl)ccc1C` (configuration not stated), for which the “activity change, negative = inhibition” value was inactive: -26.2%. The same measure for `COc1cc(Cl)c(C)cc1NC(=O)CSc1nc2c(c(=O)[nH]1)CCC2`: inactive: -13.9%; for `CCc1ccc(S(=O)(=O)c2nnn3c2nc(N2CCOCC2)c2sccc23)cc1`: inactive: 1.11%. The same measure for `Cc1ccc(N2CC(c3nc(-c4ccc(Cl)cc4)no3)CC2=O)cc1F` (configuration not stated): inactive: 12.9%. The result for `Cc1cc(N2CCC(C(=O)Nc3ccc(F)cc3C)CC2)n2nc(C)c(-c3ccc(Cl)cc3)c2n1` reads inactive: 8.04%; that for `Cc1cc(-c2ccccc2)n2nc(-c3ccc(Cl)cc3)cc2n1`, inactive: -6.85%. Regarding `Cc1cc(Br)ccc1NC(=O)C1CCCN(S(=O)(=O)c2cccc3nonc23)C1` (configuration not stated), the “activity change, negative = inhibition” value was inactive: -29.2%. Turning to `COc1ccc2cc3cc(C(=O)Nc4cc(C)c(Cl)cc4OC)oc3nc2c1`, the “activity change, negative = inhibition” value was inactive: -1.96%. On to `COc1ccc(NC(=O)CSc2oc(-c3ccc(F)cc3)nc2S(=O)(=O)c2ccc(C)cc2)c(OC)c1`, for which the “activity change, negative = inhibition” value is inactive: -7.12%. For the compound `COc1cc(Cl)c(NC(=O)c2cc(S(=O)(=O)N3CCCCC3)c[nH]2)c(OC)c1`, the “activity change, negative = inhibition” value was inactive: -19.6%. The same measure for `Cc1sc2c(c1C)c(=O)n(-c1ccc(Cl)cc1)c(=O)n2Cc1cc(=O)n2cc(Br)ccc2n1`: inactive: -0.0974%; for `CCOC(=O)c1c(S(=O)(=O)N2CCCC(C(=O)NCc3ccccc3Cl)C2)c(C)n(C)c1C` (configuration not stated): inactive: -18.1%; for `CCOc1ccccc1NC(=O)CSc1nc2c(sc3ccccc32)c(=O)n1CCCC(=O)NC1CCCC1`: inactive: -25.2%. The result for `COc1cc(NC(=O)C2CCN(S(=O)(=O)c3ccc4c(c3)CCCC(=O)N4)CC2)cc(OC)c1` reads inactive: -16.4%; that for `COc1cccc(CNC(=O)c2ccc(CNS(=O)(=O)c3ccc(C)cc3)cc2)c1`, inactive: -13.5%; that for `CCN(c1ccccc1)S(=O)(=O)c1nnc(NC(=O)c2ccccc2)s1`, inactive: -15.5%.

Consider `O=C(Nc1ccccc1)N(Cc1c[nH]c2ccccc12)C1CCCCCC1`, for which the “activity change, negative = inhibition” value is inactive: 28.1%. `Cc1cccc(N2CCN(C(=O)c3cnn(-c4ccccc4Cl)c3C3CCN(C(=O)OC(C)(C)C)CC3)CC2C)c1` (configuration not stated): the “activity change, negative = inhibition” value was inactive: -3.88%. The same measure for `COc1ccc(S(=O)(=O)NCCc2sc(-c3cccnc3)nc2C)c(F)c1`: inactive: -8.64%; for `CCc1ccc(C2c3c(oc4ccc(F)cc4c3=O)C(=O)N2CCc2ccc(OC)cc2)cc1` (configuration not stated): inactive: -11.6%. The same measure for `COc1ccc(CNCCCSc2nnnn2-c2ccccc2)cc1`: inactive: -18.5%. The same measure for `CC1CCc2c(sc3nnn(CCCCOc4ccc(Cl)cc4)c(=O)c23)C1` (configuration not stated): inactive: 4.98%. As to `Cc1ccc(CNC(=O)Cn2c(=O)ccc3cc(S(=O)(=O)N4CCC(C)CC4)ccc32)cc1`, the “activity change, negative = inhibition” value was inactive: -23.6%. The result for `COc1ccc(-c2cc(C(=O)NC(C)c3ccccc3)c3cc(C(C)C)ccc3n2)cc1` (configuration not stated) reads inactive: -13.6%; that for `CCOC(=O)c1c(NC(=O)c2cc(OCC)c(OCC)c(OCC)c2)sc2c1CCCCC2`, inactive: -1.11%; that for `CCN(CC)CCNC(=O)C(=O)NCC(c1cccnc1)N1CCN(c2ccc(F)cc2)CC1` (configuration not stated), inactive: -9.18%. The result for `O=C(Nc1ccccc1C(F)(F)F)c1cc(-c2ccc3c(c2)OCCO3)on1` reads inactive: 74.6%.

Consider `Cc1c(Cl)cccc1NC(=O)CNS(=O)(=O)c1cccs1`, for which the “activity change, negative = inhibition” value is inactive: 5.14%. On to `Cc1ccc(C2CCN(C(=O)Nc3ccc(Cl)cc3)C2)cc1` (configuration not stated), for which the “activity change, negative = inhibition” value was inactive: 15.8%. The result for `Cc1cc(=O)[nH]c2nnc(SCc3c(F)cccc3Cl)n12` reads inactive: -19.7%.

Take `CCOc1ccc2c(c1)sc1nc(=O)n(-c3ccc(Cl)c(Cl)c3)c(=O)n12`: the “activity change, negative = inhibition” value was inactive: 29.1%. The same measure for `CCOC(=O)CCn1cnc2onc(-c3cc(OC)ccc3Cl)c2c1=O`: inactive: -23.5%; for `COc1ccc(N(CC(C)C)S(=O)(=O)c2nnc(NC(=O)c3cccs3)s2)cc1`: inactive: -8.7%; for `CCCCCCCCCCCCCCC[C@H](O)[C@@H](N)CO`: inactive: 3.29%. The same measure for `Cc1cccc(NC(=O)c2ccc3c(O)c(S(=O)(=O)c4ccccc4)c(=O)[nH]c3c2)c1C`: inactive: -4.85%; for `O=C(Nc1ccc2nc(SCC(=O)N3CCc4ccccc43)sc2c1)c1cccc(F)c1`: inactive: -27.1%; for `COc1ccc(Cl)cc1NC(=O)CSc1nc2ccccc2c2nc(-c3ccccc3)nn12`: inactive: 5.42%. The result for `Cc1ccccc1-c1nc(CS(=O)(=O)CC(=O)NCCc2ccccc2)c(C)o1` reads inactive: -15.1%. Regarding `Clc1cc(Cl)cc(CNc2ncncc2-c2ccc3c(c2)OCO3)c1`, the “activity change, negative = inhibition” value is inactive: -33.1%. The result for `CS(=O)(=O)NCC(c1ccco1)N1CCN(c2ccc(F)cc2)CC1` (configuration not stated) reads inactive: -6.69%; that for `COCCNC(=O)CCn1c(=O)c2cc(OC)c(OC)cc2n(CC(=O)Nc2ccccc2C)c1=O`, inactive: -18%.
